Publication PMC6377148
Substitutions are numbered along the chain they refer to. These are yes or no findings as the source states them, for the method shown. In cells and extracts the contact can be indirect. Some results given as binding are weak or reduced against the parent protein; the word gives no strength. Sequences can lack the tags named with a protein.

By UniProt entry, the sequences of proteins in these tests, tags left out.
UniProt Q7Z2Z1: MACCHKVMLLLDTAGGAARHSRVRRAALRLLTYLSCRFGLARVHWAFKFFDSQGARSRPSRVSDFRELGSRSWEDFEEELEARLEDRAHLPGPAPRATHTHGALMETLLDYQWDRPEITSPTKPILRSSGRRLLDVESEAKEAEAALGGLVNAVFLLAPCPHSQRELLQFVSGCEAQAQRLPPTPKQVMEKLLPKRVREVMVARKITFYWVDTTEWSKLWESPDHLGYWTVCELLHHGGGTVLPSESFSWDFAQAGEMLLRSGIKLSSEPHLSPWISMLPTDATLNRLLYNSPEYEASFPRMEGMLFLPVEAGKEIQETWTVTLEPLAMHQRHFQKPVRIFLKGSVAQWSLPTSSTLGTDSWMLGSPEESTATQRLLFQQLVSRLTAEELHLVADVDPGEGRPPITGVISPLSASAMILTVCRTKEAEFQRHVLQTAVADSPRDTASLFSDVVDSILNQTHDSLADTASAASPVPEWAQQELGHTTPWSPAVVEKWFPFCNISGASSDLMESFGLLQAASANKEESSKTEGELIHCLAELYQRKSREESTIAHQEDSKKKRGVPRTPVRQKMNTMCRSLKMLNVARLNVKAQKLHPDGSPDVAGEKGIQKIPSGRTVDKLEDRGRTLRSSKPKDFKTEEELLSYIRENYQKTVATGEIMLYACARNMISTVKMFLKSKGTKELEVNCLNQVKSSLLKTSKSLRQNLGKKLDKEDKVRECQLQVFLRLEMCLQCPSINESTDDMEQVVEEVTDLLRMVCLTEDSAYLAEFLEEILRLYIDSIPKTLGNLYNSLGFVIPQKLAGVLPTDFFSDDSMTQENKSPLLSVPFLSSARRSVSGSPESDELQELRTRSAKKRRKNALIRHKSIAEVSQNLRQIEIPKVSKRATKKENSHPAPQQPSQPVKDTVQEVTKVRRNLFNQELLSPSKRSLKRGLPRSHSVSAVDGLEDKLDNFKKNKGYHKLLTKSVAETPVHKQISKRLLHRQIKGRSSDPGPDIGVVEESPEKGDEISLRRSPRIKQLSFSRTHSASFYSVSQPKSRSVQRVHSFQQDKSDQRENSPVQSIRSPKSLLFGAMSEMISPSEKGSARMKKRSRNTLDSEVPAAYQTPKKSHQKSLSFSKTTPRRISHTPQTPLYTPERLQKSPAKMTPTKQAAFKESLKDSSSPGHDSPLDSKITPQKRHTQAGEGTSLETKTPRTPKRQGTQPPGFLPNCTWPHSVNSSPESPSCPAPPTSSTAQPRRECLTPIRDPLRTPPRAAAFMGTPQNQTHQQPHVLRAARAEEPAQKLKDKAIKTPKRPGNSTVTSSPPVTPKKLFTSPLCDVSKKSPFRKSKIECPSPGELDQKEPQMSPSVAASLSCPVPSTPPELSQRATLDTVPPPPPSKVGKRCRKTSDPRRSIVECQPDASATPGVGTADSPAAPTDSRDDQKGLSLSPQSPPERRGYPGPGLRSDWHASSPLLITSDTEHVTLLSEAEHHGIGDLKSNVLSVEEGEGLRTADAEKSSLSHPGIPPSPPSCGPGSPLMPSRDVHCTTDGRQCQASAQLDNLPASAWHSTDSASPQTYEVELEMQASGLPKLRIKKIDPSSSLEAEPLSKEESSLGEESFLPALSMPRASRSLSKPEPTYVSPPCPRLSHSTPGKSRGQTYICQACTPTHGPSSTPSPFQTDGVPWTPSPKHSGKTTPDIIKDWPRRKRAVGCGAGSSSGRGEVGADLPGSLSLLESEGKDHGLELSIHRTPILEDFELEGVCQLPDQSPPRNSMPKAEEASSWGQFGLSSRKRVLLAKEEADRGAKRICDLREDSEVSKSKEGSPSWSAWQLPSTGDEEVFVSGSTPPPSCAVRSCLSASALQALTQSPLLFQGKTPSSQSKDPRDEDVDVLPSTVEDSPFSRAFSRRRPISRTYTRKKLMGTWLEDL
UniProt P49336: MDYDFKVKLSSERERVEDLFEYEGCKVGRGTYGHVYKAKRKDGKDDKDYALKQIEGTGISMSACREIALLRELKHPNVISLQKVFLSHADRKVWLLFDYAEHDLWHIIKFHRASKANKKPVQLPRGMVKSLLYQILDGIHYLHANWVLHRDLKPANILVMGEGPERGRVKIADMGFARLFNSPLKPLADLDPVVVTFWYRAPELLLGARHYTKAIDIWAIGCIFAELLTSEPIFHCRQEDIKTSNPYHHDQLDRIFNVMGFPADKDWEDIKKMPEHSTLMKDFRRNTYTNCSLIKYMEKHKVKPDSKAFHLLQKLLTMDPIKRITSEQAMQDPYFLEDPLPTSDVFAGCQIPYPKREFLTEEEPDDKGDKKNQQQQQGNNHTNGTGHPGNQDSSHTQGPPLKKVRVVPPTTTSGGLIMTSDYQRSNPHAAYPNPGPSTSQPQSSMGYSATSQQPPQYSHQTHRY

Columns and labels:
[1] = target: T1, MTBP-WT-3×Flag (HeLa Flip-In T-Rex stable line) (human) (UniProt Q96DY7); test: co-IP; Flag IP from native lysates of HeLa Flip-In T-Rex lines expressing MTBP-Flag3 (WT or mutants); endogenous Treslin/TICRR and Cdk8 by immunoblot; in S5 Fig lysates with or without lambda phosphatase, M2 anti-Flag magnetic beads
T1 sequence: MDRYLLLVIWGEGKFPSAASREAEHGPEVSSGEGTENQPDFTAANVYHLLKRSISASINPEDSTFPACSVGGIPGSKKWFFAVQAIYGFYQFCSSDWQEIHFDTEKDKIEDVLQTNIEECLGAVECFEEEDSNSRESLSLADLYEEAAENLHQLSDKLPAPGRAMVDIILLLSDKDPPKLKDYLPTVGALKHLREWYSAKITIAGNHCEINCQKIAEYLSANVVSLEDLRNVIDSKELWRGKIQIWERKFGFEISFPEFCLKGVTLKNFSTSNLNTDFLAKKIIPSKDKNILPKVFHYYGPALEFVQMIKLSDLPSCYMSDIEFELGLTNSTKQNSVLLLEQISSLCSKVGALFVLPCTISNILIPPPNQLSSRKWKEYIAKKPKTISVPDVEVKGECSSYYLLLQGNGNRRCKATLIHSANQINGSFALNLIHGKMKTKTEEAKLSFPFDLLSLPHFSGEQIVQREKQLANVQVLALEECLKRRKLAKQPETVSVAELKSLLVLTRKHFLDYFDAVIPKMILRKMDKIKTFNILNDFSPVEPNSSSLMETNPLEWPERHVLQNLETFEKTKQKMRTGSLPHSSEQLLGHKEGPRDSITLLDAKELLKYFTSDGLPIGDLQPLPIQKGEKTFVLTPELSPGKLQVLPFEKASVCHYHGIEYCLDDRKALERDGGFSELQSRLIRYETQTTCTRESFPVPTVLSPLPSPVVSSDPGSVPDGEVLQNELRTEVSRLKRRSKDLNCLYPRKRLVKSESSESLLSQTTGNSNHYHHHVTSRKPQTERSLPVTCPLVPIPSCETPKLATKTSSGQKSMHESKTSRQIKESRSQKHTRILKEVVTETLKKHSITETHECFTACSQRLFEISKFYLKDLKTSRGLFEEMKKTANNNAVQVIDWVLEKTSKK

[2] = target: T2, MTBP-WT-3×Flag-TEV2-GFP (HeLa Flip-In T-Rex stable line) (human) (UniProt Q96DY7); test: co-IP; anti-GFP (GFP nanobodies, mock-coupled control beads) IP from native lysates of HeLa Flip-In T-Rex lines expressing MTBP-3×Flag-TEV2-GFP (WT or deletions); endogenous Treslin/TICRR and Cdk8 by immunoblot
T2 sequence: T1 sequence

[3] = target: T3, MTBP L314D, C-terminally 3×Flag-tagged (293T) (human) (UniProt Q96DY7); test: co-IP; 293T transiently transfected with C-terminally 3×Flag-tagged MTBP; anti-FLAG antibody on Protein G Dynabeads, lysis buffer 20 mM HEPES, 150 mM NaCl, 10% glycerol, 0.1% Triton X-100, 1 h at 4°C; endogenous Treslin/TICRR and Cdk8 by immunoblot
T3 sequence: T1 sequence with L314D

Substance | binding [1] | binding [2] | binding [3]
Treslin/TICRR (TopBP1-interacting replication stimulating protein/TopBP1-interacting checkpoint and replication regulator), endogenous (from UniProt Q7Z2Z1 1-1910) | binds | binds | no binding
Cdk8 (cyclin-dependent kinase 8), endogenous (from UniProt P49336 1-464) (enzyme) | binds | binds | binds
